Source: the supplement of paper PMC11125491
± gives the standard deviation of the averaged measurements. Growth of baker's yeast expressing single-residue variants of Pneumocystis jirovecii dihydrofolate reductase in 8.8 or 44 µM methotrexate (about 75% and 90% inhibition of the wild type). Selection coefficient per generation; 0 = like wild type, above 0 = less sensitive, below 0 = more sensitive or loss of function. No active / inactive call per row; the paper calls resistant above 0.220 (8.8 µM) or 0.243 (44 µM) together with a significance test. At 44 µM about 15% of codons end with one read or none, so the lowest values are floors (replicate rank correlation 0.74; 0.94 at 8.8 µM).

B1: UniProt A0EPZ9; numbered along this chain (parent)
chain: MDWQKSLTLIVALTLSRGIGLKNDLPWKLKSDMMFFSRVTSGLLVTRSTGQMNVVLMGRKTWESLPAHSRPLKNRINVVISRQEVLDLGGGAYHARSLDDALALLSQIYDSTSKIQLNRVFVIGGGELCKAAMEHSRLNRIIATVIHNEVDCDVFFPIDFRSSQSCLPWRKQDHSVLEAWVGSKVPQGKINENGFIYEFEMWIRDI

Variants of: B1
Experiment: selection coefficient against synonymous wild-type codons (log2 per generation); higher = faster growth than wild type
Conditions: with Saccharomyces cerevisiae carrying the variant on a plasmid
Method: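 Pooled growth of yeast carrying single-residue variants of P. jirovecii dihydrofolate reductase (own DFR1 gene intact), two passages at 30 °C, three cultures, sequenced before and after. Codons with under 15 starting reads are left out; codons of one change are averaged.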

Row | Variant | selection coefficient against synonymous wild-type codons (log2) (methotrexate 8.8 µM) | selection coefficient against synonymous wild-type codons (log2) (methotrexate 44 µM)
1 | MDWQKSLTLIVALTLSRGIGLKNDLPWKLKSDMMFFSRVTSGLLVTRSTGQMNVVLMGRKTWESLPAHSRPLKNRINVVISRQEVLDLGGGAYHARSLDDALALLSQIYDSTSKIQLNRVFVIGGGELCKAAMEHSRLNRIIATVIHNEVDCDVFFPIDFRSSQSCLPWRKQDHSVLMAWVGSKVPQGKINENGFIYEFEMWIRDI [E178M] | -0.348 ± 0.091 | -0.356 ± 0.051
2 | MDWQKSLTLIVALTLSRGIGLKNDLPWKLKSDMMFFSRVTSGLLVTRSTGQMNVVLMGRKTWESLPAHSRPLKNRINVVISRQEVLDLGGGAYHARSLDDALALLSQIYDSTSKIQLNRVFVIGGGELCKAAMEHSRLNRIIATVIHNEVDCDVFFPIDFRSSQSCLPWRKQDHSVLNAWVGSKVPQGKINENGFIYEFEMWIRDI [E178N] | -0.118 ± 0.075 | -0.206 ± 0.17
3 | MDWQKSLTLIVALTLSRGIGLKNDLPWKLKSDMMFFSRVTSGLLVTRSTGQMNVVLMGRKTWESLPAHSRPLKNRINVVISRQEVLDLGGGAYHARSLDDALALLSQIYDSTSKIQLNRVFVIGGGELCKAAMEHSRLNRIIATVIHNEVDCDVFFPIDFRSSQSCLPWRKQDHSVLPAWVGSKVPQGKINENGFIYEFEMWIRDI [E178P] | -0.383 ± 0.074 | -0.286 ± 0.13
4 | MDWQKSLTLIVALTLSRGIGLKNDLPWKLKSDMMFFSRVTSGLLVTRSTGQMNVVLMGRKTWESLPAHSRPLKNRINVVISRQEVLDLGGGAYHARSLDDALALLSQIYDSTSKIQLNRVFVIGGGELCKAAMEHSRLNRIIATVIHNEVDCDVFFPIDFRSSQSCLPWRKQDHSVLQAWVGSKVPQGKINENGFIYEFEMWIRDI [E178Q] | -0.0855 ± 0.046 | -0.317 ± 0.033
5 | MDWQKSLTLIVALTLSRGIGLKNDLPWKLKSDMMFFSRVTSGLLVTRSTGQMNVVLMGRKTWESLPAHSRPLKNRINVVISRQEVLDLGGGAYHARSLDDALALLSQIYDSTSKIQLNRVFVIGGGELCKAAMEHSRLNRIIATVIHNEVDCDVFFPIDFRSSQSCLPWRKQDHSVLRAWVGSKVPQGKINENGFIYEFEMWIRDI [E178R] | -0.155 ± 0.077 | -0.234 ± 0.14
6 | MDWQKSLTLIVALTLSRGIGLKNDLPWKLKSDMMFFSRVTSGLLVTRSTGQMNVVLMGRKTWESLPAHSRPLKNRINVVISRQEVLDLGGGAYHARSLDDALALLSQIYDSTSKIQLNRVFVIGGGELCKAAMEHSRLNRIIATVIHNEVDCDVFFPIDFRSSQSCLPWRKQDHSVLSAWVGSKVPQGKINENGFIYEFEMWIRDI [E178S] | -0.137 ± 0.059 | -0.23 ± 0.15
7 | MDWQKSLTLIVALTLSRGIGLKNDLPWKLKSDMMFFSRVTSGLLVTRSTGQMNVVLMGRKTWESLPAHSRPLKNRINVVISRQEVLDLGGGAYHARSLDDALALLSQIYDSTSKIQLNRVFVIGGGELCKAAMEHSRLNRIIATVIHNEVDCDVFFPIDFRSSQSCLPWRKQDHSVLTAWVGSKVPQGKINENGFIYEFEMWIRDI [E178T] | -0.161 ± 0.12 | -0.214 ± 0.15
8 | MDWQKSLTLIVALTLSRGIGLKNDLPWKLKSDMMFFSRVTSGLLVTRSTGQMNVVLMGRKTWESLPAHSRPLKNRINVVISRQEVLDLGGGAYHARSLDDALALLSQIYDSTSKIQLNRVFVIGGGELCKAAMEHSRLNRIIATVIHNEVDCDVFFPIDFRSSQSCLPWRKQDHSVLVAWVGSKVPQGKINENGFIYEFEMWIRDI [E178V] | -0.45 ± 0.11 | -0.363 ± 0.086
